# Test results from PubChem BioAssay AID485344 (National Center for Advancing Translational Sciences (NCATS), 2010).
# Screen size: about 340,000 compounds; about 6,900 (2%) were called active. Cut-off read from the data, not from the text of the source: active = inhibition above about 30%; inactive = below that, where a call was filed. The list shows a part of the results, in another mix than the full data. Where no call is shown, the source filed none.
# Target: D(2) dopamine receptor (Homo sapiens) (UniProt P14416)
# UniProt P14416, sequence (P14416 whole entry, looked up): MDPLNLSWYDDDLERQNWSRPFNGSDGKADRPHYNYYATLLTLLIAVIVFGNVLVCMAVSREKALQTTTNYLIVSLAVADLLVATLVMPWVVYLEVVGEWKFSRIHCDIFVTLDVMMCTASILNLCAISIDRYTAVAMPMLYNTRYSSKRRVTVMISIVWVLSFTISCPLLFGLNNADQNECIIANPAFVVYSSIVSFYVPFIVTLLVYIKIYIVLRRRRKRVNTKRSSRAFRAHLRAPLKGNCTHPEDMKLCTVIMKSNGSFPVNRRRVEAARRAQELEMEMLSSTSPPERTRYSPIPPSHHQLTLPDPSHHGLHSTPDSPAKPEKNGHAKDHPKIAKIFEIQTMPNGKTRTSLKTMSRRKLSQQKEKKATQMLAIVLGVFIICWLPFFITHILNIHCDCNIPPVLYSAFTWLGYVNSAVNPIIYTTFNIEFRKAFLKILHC
# Assay: HTS Assay for Allosteric Antagonists of the Human D2 Dopamine Receptor: Primary Screen for Antagonists; note: 0% is about no effect
# Conditions: HEK293 TREx D2 cells, calcium flux, dopamine EC80; at 10 µM; stronger effect = higher value
# Excerpt: NIH Chemical Genomics Center [NCGC] NIH Molecular Libraries Probe Centers Network [MLPCN] MLPCN Grant: NS064831-01 Assay Submitter (PI): David Sibley Dopamine receptors (DARs) are involved in the etiology and/or therapy of a number of neuropsychiatric and endocrine disorders. For instance, all receptor-based antiparkinsonian drugs work via stimulating the D2 DAR subtype whereas all FDA-approved antipsychotic agents are antagonists of this receptor. […] There are three different types of allosteric modulators that we are seeking, two of which will stimulate or augment receptor signaling, allosteric agonists and potentiators, while the third, allosteric antagonists, will attenuate receptor signaling. The present primary screening assay measures compound antagonism after an EC80 addition of dopamine by tracking calcium flux in a […], inducible Hek293 Trex D2 cell line.
# Freshly passaged cells are plated in 1536 well black, clear bottom plates at a density of 4000 cells/well in 3 ul of complete media containing 1x tetracycline inducer. After an overnight incubation at 30 C in 5% CO2, cells are loaded with 2 ul of the no wash Calcium Assay Kit (ABD Bioquest) and incubated at room temperature for 30 to 90 minutes. Agonist read: A 10 cycle (1 second/cycle) baseline measurement is taken and then the FDSS online 1536 pintool delivers 23 nl of compound library (as well as dopamine controls) to the plate. The plate is measured for kinetically at 1 cycle/sec for 180 seconds. Following the 180 second read, 1 ul of an EC80 (negative modulation assay) is delivered by an onboard pipette head. Measurements are taken kinetically for an additional 180 seconds.
row,Structure (SMILES),inhibition
1,CCOc1ccc(NC(=O)c2cc(S(=O)(=O)N3CCN(c4ccccc4F)CC3)ccc2F)cc1,0.689%
2,Cc1ccc2[nH]c(=O)c3cc(C(=O)NC4CCC(C)CC4)sc3c2c1 (centres undefined),-19.4%
3,CCCCN(C)C(=O)CSc1nc2ccccc2nc1Cc1ccc(C)cc1,21.8%
4,O=c1cc(-c2ccccc2)n2c(SCc3ccccc3Cl)nnc2[nH]1,-2.16%
5,CCOc1ccc(Nc2c(S(=O)(=O)c3ccc(C)cc3)cnc3ccc(F)cc23)cc1,-3.02%
6,COc1cccc(CNC(=O)c2nc(Cn3nc(C)c(Br)c3C)no2)c1,-6.6%
7,COc1ccccc1CNC(=O)C(=O)NCC(c1cccs1)S(=O)(=O)c1cccs1 (centres undefined),-6.33%
8,O=C(Cn1ncc2c3ccccc3n(Cc3cccc(Cl)c3)c2c1=O)Nc1ccc(F)cc1F,-1.21%
9,COc1cc(CNC(=O)c2ccc3c(c2)c(C)c(C)n3Cc2cccc(C)c2)cc(OC)c1OC,3.11%
10,CCN(CC)C(=O)c1sc2c(c1C)c(=O)n(CCc1ccccc1)c(=O)n2Cc1cc(C)ccc1C,4.7%
11,COc1ccccc1N1CCN(S(=O)(=O)/C=C/c2ccccc2)CC1,active: 53.6%
12,O=C(CSc1nnc(-c2cccs2)o1)Oc1ccccc1Cl,12.8%
13,CC(C)(C)C(=O)NCC(c1ccc2c(c1)OCO2)N1CCOCC1 (centres undefined),-19.1%
14,COc1cccc(N2CCN(C(=O)c3cc4c(s3)-c3ccccc3OC4)CC2)c1,0.128%
15,Cc1cccc(C)c1NC(=O)C(NS(=O)(=O)c1cccs1)c1ccccc1 (centres undefined),-0.35%
16,O=C(NCCc1ccc(Cl)cc1)c1ccc(CS(=O)(=O)c2ccc(Cl)cc2)o1,-11.7%
17,O=C(Cn1ccn(-c2ccc(F)cc2)c(=O)c1=O)Nc1ccc(F)cc1,8.21%
18,COc1cccc(N2CCN(C(=O)C3CCN(S(=O)(=O)c4c(C)noc4/C=C/c4ccccc4F)CC3)CC2)c1,4.47%
19,Cc1c(C(=O)Nc2ccccc2)sc2nc(-c3cc4cc(Cl)ccc4oc3=O)[nH]c(=O)c12,6.7%
20,CCCS(=O)(=O)c1c(S(=O)(=O)CCC)c2cc(C(C)(C)C)ccn2c1C(=O)c1ccccc1,-2.03%
21,Cc1ccc(C(C(=O)NC2CCCCC2)N(Cc2ccco2)C(=O)Cc2c[nH]c3ccccc23)o1 (centres undefined),active: 36.1%
22,Cc1ccccc1C(=O)Nc1ccc2nc(N3CCCCC3)cc(C)c2c1,3.32%
23,COC(=O)c1ccc(NC(=O)CC2C(=O)N(c3ccccc3)C(=O)N2Cc2ccc(F)cc2)cc1 (centres undefined),-1.58%
24,COc1ccc(NC(=O)Cn2cc(S(=O)(=O)c3ccccc3)c(=O)c3cc4c(cc32)OCO4)cc1,1.19%

row,Structure (SMILES),inhibition
1,CCN1CCc2c(sc(-n3cccc3)c2C(C)NC(=O)Nc2ccc(Br)cc2)C1 (centres undefined),17.1%
2,Cc1ccc(Cl)cc1NC(=S)N(CCCN1CCN(C)CC1)Cc1ccco1,active: 71%
3,CCCC(=O)OCc1cnc(C)c2oc(=O)c(C(=O)Nc3cccc(C(F)(F)F)c3)cc12,-12.5%
4,COc1ccc(N(Cc2cccs2)C(=O)c2ccc(OC)c(Cl)c2)cc1,8.67%
5,Cc1cccc(N2CCN(C(=O)C3CCN(S(=O)(=O)c4c(C)noc4C)CC3)CC2C)c1 (centres undefined),-7.24%
6,CCOC(=O)c1[nH]c(C)c(CCC(=O)NCc2ccc(CC)cc2)c1C,-0.319%
7,CCN(CC)CCNC(=O)c1cc2c(=O)n(C)c3cc(Cl)ccc3c2s1,13.3%
8,Cc1ccc(-c2ccc(=O)n(CCC(=O)NCCc3ccccc3)n2)cc1,-10.9%
9,COc1cccc(CN2c3ccccc3-c3nc(SCC(=O)Nc4ccccc4Cl)ncc3S2(=O)=O)c1,18.5%
10,CC(C)COc1ccc(C(=O)N2CCN(CCc3ccncc3)CC2)cc1,-11.2%
11,O=C1CSC2(C(=O)N(Cc3cccc(F)c3)c3ccccc32)N1c1cccc(C(F)(F)F)c1 (centres undefined),-0.0067%
12,COc1ccc(NC(=O)c2ccc3nc(C(C)C)oc3c2)cc1OC,9.63%
13,CCC(Oc1ccc(F)cc1)C(=O)Nc1c(C(=O)c2ccc(C)cc2)oc2ccccc12 (centres undefined),-9.45%
14,CCn1cc(C(=O)N2CCN(c3ccccc3)CC2)c(=O)c2cc(S(=O)(=O)N3CCOCC3)ccc21,-7.16%
15,CCn1c2c(c(=O)n3ncc(C(=O)N4CCN(c5ccc(Cl)cc5)CC4)c13)CN(Cc1ccc(OC)cc1)CC2,6.95%
16,O=C(Nc1cccc(Cl)c1)c1nc[nH]c1C(=O)N1CCc2ccccc2C1,active: 56.4%
17,COc1ccc(-c2nc3scc(CCNS(=O)(=O)c4ccc(F)cc4C)n3n2)cc1,-6.23%
18,COC(=O)c1cc2oc3ccccc3c2n1Cc1ccc(Cl)cc1,-5.32%
19,CN1C(=O)c2ccccc2Sc2ccc(NC(=O)c3ccc(C(F)(F)F)cc3)cc21,10.5%
20,N#Cc1ccccc1NS(=O)(=O)c1ccc(N2CCCCS2(=O)=O)cc1,-4.67%
21,COc1ccc(CNC(=O)CCc2c(C)c3cc4c(C)coc4c(C)c3oc2=O)cc1OC,-9.68%
22,Cc1ccc(N2CC(NC(=O)c3cc4ccccc4o3)CC2=O)cc1 (centres undefined),-7.32%
23,COc1ccc(NC(=O)Cn2c(=O)n(Cc3ccccc3)c(=O)c3sc4ccccc4c32)cc1,3.08%
24,CCOc1ccc(C(=O)Nc2ccc3oc(-c4ccc5ccccc5c4)nc3c2)cc1,-9.6%

row,Structure (SMILES),inhibition
1,CCCCNC(=O)c1cc2n(n1)CCCN(Cc1ccc(C)cc1)C2=O,-21.2%
2,CCc1ccc(Cn2c(CNS(=O)(=O)c3ccc(C)c(C)c3)nc3cccnc32)cc1,6.05%
3,COc1ccc(N2C(=O)CSC23C(=O)N(CC(=O)NCCc2ccccc2)c2ccccc23)cc1 (centres undefined),-9.18%
4,O=C(CSc1nc(=O)[nH]c2c1CCCC2)NCc1ccccc1,6.2%
5,COc1ccccc1C(=O)Nc1ccc(C(=O)OCc2cc(=O)n3nc(C4CC4)sc3n2)cc1,0.611%
6,Cc1nn2c(C)c(C(=O)NC(C)(C)C)cnc2c1-c1ccc(F)cc1,-4.42%
7,Cc1c(C)c2cc3c(c(C)c2oc1=O)OCN(CCc1ccc(F)cc1)C3,0.582%
8,OC(COc1ccc(CNCc2cccnc2)cc1)CN1CCc2ccccc2C1 (centres undefined),active: 48.8%
9,CC(C)c1nn2c(=O)cc(COC(=O)c3ccco3)nc2s1,-2.1%
10,COc1ccccc1N1CCN(S(=O)(=O)c2c(C)nc3sccn3c2=O)CC1,-10%
11,Cc1ccc(S(=O)(=O)c2c(O)cc(C)c(NS(=O)(=O)c3ccc(Cl)cc3)c2C)cc1,-5.39%
12,Cc1cc(C)c2sc(N3CCN(C(=O)c4ccc(N(C)C)cc4)CC3)nc2c1,6.16%
13,CC(OC(=O)Cn1c(C(F)(F)F)nc2ccccc21)C(N)=O (centres undefined),active: 39.9%
14,CCC(C)NS(=O)(=O)c1ccc(NC(=O)c2ccc([N+](=O)[O-])cc2Cl)cc1 (centres undefined),active: 37.3%
15,Cc1ccc(-c2cc3nc(-c4ccccc4)cc(C(F)(F)F)n3n2)cc1,-7.45%
16,COc1cc(C2CC(=O)Oc3c2c(=O)[nH]c2ccccc32)cc(OC)c1OC (centres undefined),-1.02%
17,Cc1ccc(NC(=O)C2CCN(S(=O)(=O)c3cccc4nonc34)CC2)cc1C,8.73%
18,CCOc1ccc(Nc2c(S(=O)(=O)c3ccccc3)cnc3ccc(F)cc23)cc1,-0.0856%
19,Cc1[nH]c2ccccc2c1C(=O)CN1CCN(C2CCCCC2)CC1,active: 58.2%
20,O=C(Oc1ccccc1F)c1nc(SCc2ccc(F)cc2)ncc1Cl,-2.81%
21,Cc1ccc(CN(C(=O)COc2cc(C)c(Cl)c(C)c2)c2ccccn2)o1,1.9%
22,COc1ccc(-c2nc3scc(CCNS(=O)(=O)c4ccc5c(c4)OCCO5)n3n2)cc1,-1.65%
23,CC(=O)N1CCc2cc(Br)cc(S(=O)(=O)CCC(=O)N3CCN(c4ccccc4Cl)CC3)c21,-2.47%
24,CCOc1ccc(-c2c(C)nn3c(C)c(C(=O)Nc4cc(C)cc(C)c4)cnc23)cc1OCC,13.7%

row,Structure (SMILES),inhibition
1,CC(C)Sc1ncc(Cl)c(C(=O)Nc2ccc(S(=O)(=O)N3CCCCC3)cc2)n1,6.03%
2,CCN(CC)S(=O)(=O)c1ccc2c(c1)c(=O)c(C(=O)N1CCN(c3cc(Cl)ccc3C)CC1)cn2C,9.56%
3,CC1=C(C(=O)Nc2ccc(Cl)cc2)C(c2ccccc2)n2ncc(C(=O)Nc3ccccc3)c2N1 (centres undefined),-2.89%
4,Cc1cc(C)c2c(c1)c(C)cc1nnc(SCc3ccccc3C#N)n12,-4.34%
5,Cc1ccc(NC(=O)CN2C(=O)COc3ccc(S(=O)(=O)NC4CCCC4)cc32)cc1N(C)C,-7.42%
6,Cc1ccc(C)c(Cn2c(=O)c3c(nc4n3CCN4c3ccccc3)n(C)c2=O)c1,-12.7%
7,COc1ccc(/C=C(\C#N)C(=O)OC2CCOC2=O)cc1 (centres undefined),active: 33.4%
8,CCSc1ncc(Cl)c(C(=O)Nc2sc3c(c2C(=O)NCCCOC)CCCC3)n1,-20.8%
9,CC(=O)N1CCc2c(sc3c2c(=O)n(CCc2ccccc2)c(=O)n3Cc2ccccc2C)C1,4.65%
10,COc1ccc(NC(=O)CSc2nc(-c3cccc(C)c3)[nH]c2-c2ccccc2)cc1OC,15.4%
11,Cc1ccc(C)c(-c2ccc(=O)n(Cc3c(F)cccc3Cl)n2)c1,10.5%
12,Cc1cccc(C)c1NC(=O)CS(=O)(=O)c1nc(-c2ccc(Cl)cc2)cn1-c1ccccc1,-11.1%
13,CC(=O)N1CCc2cc(S(=O)(=O)NC(CC(C)C)C(=O)Nc3cc(C)cc(C)c3)ccc21 (centres undefined),0.409%
14,Cc1oc(-c2ccccc2Cl)nc1CSc1nc2c(c(=O)[nH]1)CCC2,active: 35%
15,CCC(=O)C1=C(c2ccc(C)cc2)N(C(=O)CC)n2c(nnc2C2CCCCC2)S1,8.6%
16,CC1=C(C(=O)Nc2ccccc2C)C(c2ccccn2)n2ncnc2N1 (centres undefined),10.2%
17,CCOC(=O)c1nc(NCc2ccc(Cl)cc2)c2c(C)noc2n1,-8.76%
18,Cc1c(Cl)cccc1NC(=O)CCOc1ccccc1,16.9%
19,Cc1cccn2c(=O)c3cc(C#N)c(=O)n(-c4nnc(SCc5ccc(Cl)cc5)s4)c3nc12,-0.636%
20,CCOc1ccc(Cn2c(=O)sc3ccccc32)cc1,-3.37%
21,CC1Cc2ccccc2N1C(=O)CSc1nnc(-c2ccccc2Cl)o1 (centres undefined),-3.49%
22,CN(C)c1ccc(CNC(=O)c2ccccc2NC(=O)c2nsc3ccccc23)cc1,-26%
